Source: patent US7592316B2, “Peptides as NS3-serine protease inhibitors of hepatitis C virus” (Schering Corporation, priority 2000, dated 2009)
*1 amine or outer side, *2 acyl side, *3 side chain or, on linkers, in order; H or OH if unused. Where a SMILES comes first, the peptide text is derived from it. [ ]: non-standard residue; d: D form. The star is where a group is joined. ξ: configuration not given here. ξ(3-Amino-2-oxohex-5-enoyl) = C=CCC(N[*:1])C(=O)C(=O)[*:2]; Pro(3R,4S-CMe2) = CC1(C)[C@@H]2[C@@H](C(=O)O)NC[C@@H]21; Pro(3S,4R-methano) = O=C(O)[C@H]1NC[C@@H]2C[C@@H]21; Pro(trans-4-Ph) = O=C(O)[C@@H]1C[C@@H](c2ccccc2)CN1; Pro(4,4-S(CH2)3S) = O=C(O)[C@@H]1CC2(CN1)SCCCS2; X12 = CCC[C@H](N[*:1])C(=O)C(=O)[*:2]; Isobutyloxycarbonyl = CC(C)COC(=O)*; X8 = O=C(C(=O)[*:2])C(CC1CC1)N[*:1]; Hyp = O=C(O)[C@@H]1C[C@@H](O)CN1; X2 = CCCC(N[*:1])C(=O)C(=O)[*:2]; X44 = O=C(O)CC(CC(=O)*)c1ccccc1; X14 = O=C(O)Cc1ccc(CC(=O)*)cc1; dTle = CC(C)(C)[C@@H](N)C(=O)O; Benzyl(4-Cl) = Clc1ccc(C*)cc1; Chg = N[C@H](C(=O)O)C1CCCCC1; Phg = N[C@H](C(=O)O)c1ccccc1; Tle = CC(C)(C)[C@H](N)C(=O)O; Troc = O=C(OCC(Cl)(Cl)Cl)*; ξChg = NC(C(=O)O)C1CCCCC1; ξPhg = NC(C(=O)O)c1ccccc1; Carboxymethyl = O=C(O)C*; X65 = CC1CCC(CC(=O)*)CC1; ξF = NC(Cc1ccccc1)C(=O)O; Boc = CC(C)(C)OC(=O)*; X53 = CC1CCCCC1C(=O)*; ξNle = CCCCC(N)C(=O)O; ξV = CC(C)C(N)C(=O)O; Bn = c1ccc(C*)cc1; OtBu = CC(C)(C)O*; tBu = CC(C)(C)*

The compounds below were run against HCV NS3/NS4A protease (strain 1a) (Hepatitis C virus genotype 1a, UniProt P27958) (assay: biochemical). Conditions: Compounds prepared by Solid Phase Synthesis, Table 3; read-out: Ki* CLASS.

Compound | Ki [nM]
CCCCC(NC(=O)CNC(=O)C(=O)C(CCC)NC(=O)[C@@H]1C[C@@H](OCc2ccccc2)CN1C(=O)C(NC(=O)CC(CC(=O)O)c1ccccc1)C1CCCCC1)C(N)=O (stereo partly shown) (X44-[ξChg][Hyp](Bn)[X2]G[ξNle]-NH2) | > 1000
CCCC(NC(=O)[C@@H]1C[C@@H](OC(C)(C)C)CN1C(=O)[C@@H](NC(=O)Cc1ccc(CC(=O)O)cc1)C1CCCCC1)C(=O)C(=O)NCC(=O)N[C@H](C(N)=O)c1ccccc1 (stereo partly shown) (X14-[Chg][Hyp](tBu)[X2]G[Phg]-NH2) | 1 to 100
CCCCC(NC(=O)CNC(=O)C(=O)C(CCC)NC(=O)[C@@H]1C[C@@H](OCC(=O)O)CN1C(=O)C(NC(=O)CC1CCC(C)CC1)C1CCCCC1)C(N)=O (stereo partly shown) (X65-[ξChg][Hyp](Carboxymethyl)[X2]G[ξNle]-NH2) | > 1000
CCCCC(NC(=O)C(CCCC)NC(=O)CNC(=O)C(=O)C(CCC)NC(=O)[C@@H]1C[C@@H](OCc2ccccc2)CN1C(=O)C(NC(=O)C1CCCCC1C)C1CCCCC1)C(N)=O (stereo partly shown) (X53-[ξChg][Hyp](Bn)[X2]G[ξNle][ξNle]-NH2) | 101 to 1000
CCCC(NC(=O)[C@@H]1CCCN1C(=O)C(NC(=O)OCC(C)C)C(C)C)C(=O)C(=O)NCC(=O)NC(Cc1ccccc1)C(N)=O (stereo partly shown) (Isobutyloxycarbonyl-[ξV]P[X2]G[ξF]-NH2) | > 1000

Same assay, conditions: HCV protease continuous assay results, Table 1; read-out: Ki* Range

Compound | Ki [nM]
CC(C)COC(=O)N[C@H](C(=O)N1CC2(C[C@H]1C(=O)NC(CC1CC1)C(=O)C(=O)NCC(=O)NC(C(=O)O)c1ccccc1)SCCCS2)C(C)(C)C (stereo partly shown) [Example 179] (Isobutyloxycarbonyl-[Tle][Pro(4,4-S(CH2)3S)][X8]G[ξPhg]-OH) | 1 to 100
COC(=O)CNC(=O)C(=O)C(CCC(C)C)NC(=O)[C@@H]1C[C@@H](OC(C)(C)C)CN1C(=O)C(NC(=O)OCC(C)C)C(C)(C)C (stereo partly shown) [Example 249] | > 1000
CCCC(NC(=O)[C@@H]1C[C@@H](c2ccccc2)CN1C(=O)[C@@H](NC(=O)OCC(C)C)C1CCCCC1)C(=O)C(=O)NCC(=O)N[C@H](C(=O)OC(C)(C)C)c1ccccc1 (stereo partly drawn) [Example 84] (Isobutyloxycarbonyl-[Chg][Pro(trans-4-Ph)][X2]G[Phg]-OtBu) | > 1000
C=CCC(NC(=O)[C@@H]1[C@@H]2[C@H](CN1C(=O)[C@H](NC(=O)OC(C)(C)C)C(C)(C)C)C2(C)C)C(=O)C(=O)NCC(=O)N[C@H](C(=O)N(C)C)c1ccccc1 (stereo partly drawn) [Example 337] (Boc-[dTle][Pro(3R,4S-CMe2)][ξ(3-Amino-2-oxohex-5-enoyl)]G[Phg]-NMe2) | 1 to 100
CCCC(NC(=O)C1C[C@@H](SC(C)(C)C)CN1C(=O)C(NC(=O)OCC(C)C)C1CCCCC1)C(=O)C(=O)NCC(=O)NC(C(=O)NC)c1ccccc1 (stereo partly shown) [Example 156] | 101 to 1000
CCCC(NC(=O)[C@@H]1C[C@@H](c2ccccc2)CN1C(=O)[C@@H](NC(=O)OCC(Cl)(Cl)Cl)C1CCCCC1)C(=O)C(=O)NCC(=O)N[C@H](C(=O)O)c1ccccc1 (stereo partly drawn) [Example 86] (Troc-[Chg][Pro(trans-4-Ph)][X2]G[Phg]-OH) | 101 to 1000
CCCC(NC(=O)[C@@H]1CC2(CN1C(=O)[C@@H](NC(=O)OCC(C)C)[C@@H](C)OCc1ccc(Cl)cc1)SCCCS2)C(=O)C(=O)NCC(=O)N[C@H](C(=O)O)c1ccccc1 (stereo partly shown) [Example 113] (Isobutyloxycarbonyl-T(Benzyl(4-Cl))[Pro(4,4-S(CH2)3S)][X2]G[Phg]-OH) | 101 to 1000
CCCC(NC(=O)[C@@H]1C[C@@H](c2ccccc2)CN1C(=O)[C@@H](NC(=O)OC(C)(C)C)C1CCCCC1)C(=O)C(=O)NCC(=O)NCc1ccccc1OC (stereo partly shown) [Example 70] | > 1000

Same assay, conditions: Ki* Range, Table 5; HCV NS3/NS4A protease, spectrophotometric assay, 30° C., pH 6.5

Compound | Ki [nM]
CCCC(NC(=O)C1C2C(CN1C(=O)C(NC(=O)Oc1ccc(C(=O)OC)cc1)C1CCCCC1)C2(C)C)C(=O)C(N)=O (stereo not shown) | 101 to 1000

Same assay, conditions: Table 4; HCV NS3/NS4A protease, spectrophotometric assay, 30° C., pH 6.5; read-out: Ki* Range

Compound | Ki [nM]
CCC[C@H](NC(=O)[C@@H]1[C@H]2C[C@H]2CN1C(=O)[C@@H](NC(=O)OCC(C)C)C(C)(C)C)C(=O)C(=O)NCC(=O)N[C@H](C(=O)N(C)C)c1ccccc1 (Isobutyloxycarbonyl-[Tle][Pro(3S,4R-methano)][X12]G[Phg]-NMe2) | 1 to 100

Same assay, conditions: Table 5; HCV NS3/NS4A protease, 30° C., pH 6.5; read-out: Ki* Range

Ki [nM] | Compound
1 to 100 | C=CCCC(NC(=O)[C@@H]1[C@@H]2[C@H](CN1C(=O)[C@@H](NC(=O)NC13CC4CC(CC(C4)C1)C3)C1CCCCC1)C2(C)C)C(=O)C(=O)NCCC(=O)OC1(C)CCCC1 (stereo partly shown)
101 to 1000 | C=CCNC(=O)C(=O)C(CCC)NC(=O)[C@@H]1C2C(CN1C(=O)[C@@H](NC(=O)NC1CCCC1)C1Cc3ccccc3C1)C2(C)C (stereo partly shown)
> 1000 | C=CCCNC(=O)C(=O)C(CCC=C)NC(=O)[C@@H]1[C@H]2[C@@H](CN1C(=O)[C@@H](N)C(C)(C)C)C2(Cl)Cl (stereo partly shown)
1 to 100 | C=CCC(NC(=O)[C@@H]1[C@@H]2[C@H](CN1C(=O)[C@@H](NC(=O)NC(C)(C)C)C(C)(C)C)C2(C)C)C(=O)C(=O)NCC(=O)NCc1ccccc1 (stereo partly shown) [drawing 2089]
101 to 1000 | C=CCCC(NC(=O)[C@@H]1C2C(CN1C(=O)[C@@H](NC(=O)OC1CCCCC1)C1Cc3ccccc3C1)C2(C)C)C(=O)C(=O)NCC=C (stereo partly shown)

Same assay, conditions: Table 5; HCV NS3/NS4A protease, spectrophotometric assay, 30° C., pH 6.5; read-out: Ki* Range

Ki [nM] | Compound
> 1000 | CCCC(NC(=O)[C@@H]1[C@@H]2[C@H](CN1C(=O)[C@@H](NS(C)(=O)=O)C(C)(C)C)C2(C)C)C(=O)C(N)=O (stereo partly shown)
> 1000 | C=CCNC(=O)C(=O)C(CCC)NC(=O)[C@@H]1C2C(CN1C(=O)C(NC(=O)OC(C)(C)C)C(c1ccccc1)c1ccccc1)C2(C)C (stereo partly shown)
